These are yes or no findings as the source states them, for the method shown. For some of these results: Binding seen in cells or lysates may run through a third protein. Some binding calls cover weakened binding; strength is not graded here. For some of these results: Where a sequence is shown, tags or fusion partners need not be part of it. Values belong to the substance of their own block, whether it stands above or below them.
Legend:
[1] = biological target: T1, UbP_N (N-terminal part of DC-UbP, residues 14-141) (human) (UniProt Q8WUN7); test: NMR titration; 15N-labelled UbP_N or UbP_C titrated with GST-UFD at a molar ratio of 1:3; peak intensity changes; both purified
T1 sequence: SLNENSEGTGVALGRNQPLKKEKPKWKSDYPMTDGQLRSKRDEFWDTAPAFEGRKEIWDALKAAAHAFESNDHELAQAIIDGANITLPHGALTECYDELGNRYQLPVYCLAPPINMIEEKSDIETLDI

Amino acid sequences for entries named in this document (tags omitted). A change or cut given only in a name is not applied to a line headed by its entry. Residues count along the entry.
UniProt Q02053, residues 950-1058: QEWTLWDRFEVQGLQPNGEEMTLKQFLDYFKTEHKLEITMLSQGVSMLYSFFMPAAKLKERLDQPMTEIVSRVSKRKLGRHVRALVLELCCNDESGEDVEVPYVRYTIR
UniProt P45974: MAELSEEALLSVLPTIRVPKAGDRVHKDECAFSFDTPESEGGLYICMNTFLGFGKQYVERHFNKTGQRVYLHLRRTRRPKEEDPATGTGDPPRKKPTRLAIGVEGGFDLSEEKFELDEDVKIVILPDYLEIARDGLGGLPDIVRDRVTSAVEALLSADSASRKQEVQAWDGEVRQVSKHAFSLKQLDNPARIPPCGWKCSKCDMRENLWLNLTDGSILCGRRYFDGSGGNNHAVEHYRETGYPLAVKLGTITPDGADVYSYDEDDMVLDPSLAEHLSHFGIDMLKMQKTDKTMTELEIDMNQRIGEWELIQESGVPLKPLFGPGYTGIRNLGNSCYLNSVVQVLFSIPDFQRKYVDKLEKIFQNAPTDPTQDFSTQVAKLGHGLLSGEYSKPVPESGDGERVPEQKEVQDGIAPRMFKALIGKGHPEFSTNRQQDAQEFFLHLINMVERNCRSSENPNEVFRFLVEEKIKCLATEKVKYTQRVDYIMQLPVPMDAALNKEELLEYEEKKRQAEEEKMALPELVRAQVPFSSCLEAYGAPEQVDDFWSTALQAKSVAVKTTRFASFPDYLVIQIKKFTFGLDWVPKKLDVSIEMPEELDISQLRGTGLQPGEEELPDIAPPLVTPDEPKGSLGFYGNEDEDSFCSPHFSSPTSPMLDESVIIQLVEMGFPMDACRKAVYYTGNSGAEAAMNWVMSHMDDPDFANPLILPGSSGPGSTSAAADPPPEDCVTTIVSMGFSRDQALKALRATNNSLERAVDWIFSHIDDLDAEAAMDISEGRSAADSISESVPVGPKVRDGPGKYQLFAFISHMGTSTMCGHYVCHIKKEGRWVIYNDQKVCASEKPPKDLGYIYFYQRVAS
UniProt P22314: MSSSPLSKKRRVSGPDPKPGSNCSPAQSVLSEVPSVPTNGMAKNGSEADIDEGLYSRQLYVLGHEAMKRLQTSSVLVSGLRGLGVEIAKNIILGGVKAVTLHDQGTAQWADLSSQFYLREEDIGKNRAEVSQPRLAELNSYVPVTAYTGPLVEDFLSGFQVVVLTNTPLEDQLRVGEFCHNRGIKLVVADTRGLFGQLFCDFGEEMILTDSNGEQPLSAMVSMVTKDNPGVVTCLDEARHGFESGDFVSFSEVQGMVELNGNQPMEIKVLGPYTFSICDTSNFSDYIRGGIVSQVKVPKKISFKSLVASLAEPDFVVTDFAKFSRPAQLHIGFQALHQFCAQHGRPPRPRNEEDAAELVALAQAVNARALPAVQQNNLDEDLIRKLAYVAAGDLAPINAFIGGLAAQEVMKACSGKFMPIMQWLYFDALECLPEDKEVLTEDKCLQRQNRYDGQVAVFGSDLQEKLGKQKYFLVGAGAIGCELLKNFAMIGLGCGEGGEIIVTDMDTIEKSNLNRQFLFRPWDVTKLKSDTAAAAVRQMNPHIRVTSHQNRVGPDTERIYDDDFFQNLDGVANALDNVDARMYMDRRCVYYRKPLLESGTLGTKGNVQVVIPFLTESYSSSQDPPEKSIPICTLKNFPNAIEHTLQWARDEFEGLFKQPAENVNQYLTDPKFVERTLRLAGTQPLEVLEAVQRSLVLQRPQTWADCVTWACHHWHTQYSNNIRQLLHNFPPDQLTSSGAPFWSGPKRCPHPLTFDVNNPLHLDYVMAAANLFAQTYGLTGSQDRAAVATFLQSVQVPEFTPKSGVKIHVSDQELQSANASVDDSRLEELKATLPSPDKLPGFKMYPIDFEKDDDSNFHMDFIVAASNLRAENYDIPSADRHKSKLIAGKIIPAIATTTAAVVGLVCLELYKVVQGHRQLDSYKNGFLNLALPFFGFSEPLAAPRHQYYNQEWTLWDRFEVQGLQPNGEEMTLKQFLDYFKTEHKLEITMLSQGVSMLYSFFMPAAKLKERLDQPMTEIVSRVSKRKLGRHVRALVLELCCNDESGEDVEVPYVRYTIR

[2] = biological target: T2, UbP_C (C-terminal part of DC-UbP, residues 129-234), His-tagged (human) (UniProt Q8WUN7); test: NMR titration; 15N-labelled UbP_C (200 uM; 150 uM for the affinity) titrated with USP5_UBA12 or USP5_ZnF; 1H-15N HSQC, 20 mM phosphate, 50 mM NaCl, pH 6.5, 298 K; both purified
T2 sequence: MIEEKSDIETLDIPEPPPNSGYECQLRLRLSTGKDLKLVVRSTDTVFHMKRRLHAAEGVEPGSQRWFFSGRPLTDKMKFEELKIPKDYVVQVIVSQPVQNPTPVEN

GST-fused DC-UbP (human) = biological target: T3, GST-fused DC-UbP (human) (UniProt Q8WUN7); test: pull-down; the same GST-DC-UbP pull-down from HEK 293T lysate, read by immunoblotting with antibodies against UbE1, USP5 or Ub (also after re-suspension in 8 M urea); only the target purified
T3 sequence: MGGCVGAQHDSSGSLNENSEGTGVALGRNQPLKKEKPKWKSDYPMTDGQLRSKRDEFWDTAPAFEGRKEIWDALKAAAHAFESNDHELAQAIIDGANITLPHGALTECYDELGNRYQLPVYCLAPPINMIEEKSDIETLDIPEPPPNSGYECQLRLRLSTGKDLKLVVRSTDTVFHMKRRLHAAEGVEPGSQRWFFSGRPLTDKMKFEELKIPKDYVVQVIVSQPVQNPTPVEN

[3] = biological target: T4, FLAG-tagged DC-UbP (human) (UniProt Q8WUN7); test: co-IP; FLAG-DC-UbP, FLAG-UbP_N or FLAG-UbP_C co-transfected with Myc-USP5 into HEK 293T; IP with mouse anti-FLAG M2-agarose; endogenous UbE1 detected with anti-UbE1
T4 sequence: T3 sequence

[4] = biological target: T5, FLAG-tagged UbP_C (residues 129-234 of DC-UbP) (human) (UniProt Q8WUN7); test: as above
T5 sequence: T2 sequence

[5] = biological target: T6, FLAG-tagged UbP_N (residues 14-141 of DC-UbP) (human) (UniProt Q8WUN7); test: as above
T6 sequence: T1 sequence

binding [1]: no binding
Substance: GST-fused UFD domain of UbE1 (residues 950-1058) (from UniProt Q02053 950-1058) (domain or fragment)

binding [2]: no binding
Substance: USP5_ZnF (zinc-finger domain of USP5, residues 169-289) (from UniProt P45974 169-289) (domain or fragment)

binding (GST-fused DC-UbP (human)): binds
Substance: endogenous USP5 (ubiquitin-specific protease 5) of HEK 293T cells (from UniProt P45974 1-858) (enzyme)

binding (GST-fused DC-UbP (human)): binds | binding [3]: binds | binding [4]: binds | binding [5]: no binding
Substance: endogenous UbE1 (ubiquitin-activating enzyme E1) of HEK 293T cells (from UniProt P22314 1-1058)

— PMC4160250
